# Reference: PMC4336329 (PLoS ONE, 2015)
# The whole screen tested about 310,000 compounds, of which about 14,000 (4.5%) showed an effect of 50% or more. Effects have a minus sign here. Some of the results follow.
# Target: human ether-à-go-go-related gene (hERG) potassium channel (human, UniProt Q12809)
# Assay: primary screen, population patch clamp on CHO cells stably expressing hERG
# 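Note: peak tail current of the secondary pulse compared with the same well before compound.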
# Sequence of human ether-à-go-go-related gene (hERG) potassium channel (Q12809 whole entry, looked up): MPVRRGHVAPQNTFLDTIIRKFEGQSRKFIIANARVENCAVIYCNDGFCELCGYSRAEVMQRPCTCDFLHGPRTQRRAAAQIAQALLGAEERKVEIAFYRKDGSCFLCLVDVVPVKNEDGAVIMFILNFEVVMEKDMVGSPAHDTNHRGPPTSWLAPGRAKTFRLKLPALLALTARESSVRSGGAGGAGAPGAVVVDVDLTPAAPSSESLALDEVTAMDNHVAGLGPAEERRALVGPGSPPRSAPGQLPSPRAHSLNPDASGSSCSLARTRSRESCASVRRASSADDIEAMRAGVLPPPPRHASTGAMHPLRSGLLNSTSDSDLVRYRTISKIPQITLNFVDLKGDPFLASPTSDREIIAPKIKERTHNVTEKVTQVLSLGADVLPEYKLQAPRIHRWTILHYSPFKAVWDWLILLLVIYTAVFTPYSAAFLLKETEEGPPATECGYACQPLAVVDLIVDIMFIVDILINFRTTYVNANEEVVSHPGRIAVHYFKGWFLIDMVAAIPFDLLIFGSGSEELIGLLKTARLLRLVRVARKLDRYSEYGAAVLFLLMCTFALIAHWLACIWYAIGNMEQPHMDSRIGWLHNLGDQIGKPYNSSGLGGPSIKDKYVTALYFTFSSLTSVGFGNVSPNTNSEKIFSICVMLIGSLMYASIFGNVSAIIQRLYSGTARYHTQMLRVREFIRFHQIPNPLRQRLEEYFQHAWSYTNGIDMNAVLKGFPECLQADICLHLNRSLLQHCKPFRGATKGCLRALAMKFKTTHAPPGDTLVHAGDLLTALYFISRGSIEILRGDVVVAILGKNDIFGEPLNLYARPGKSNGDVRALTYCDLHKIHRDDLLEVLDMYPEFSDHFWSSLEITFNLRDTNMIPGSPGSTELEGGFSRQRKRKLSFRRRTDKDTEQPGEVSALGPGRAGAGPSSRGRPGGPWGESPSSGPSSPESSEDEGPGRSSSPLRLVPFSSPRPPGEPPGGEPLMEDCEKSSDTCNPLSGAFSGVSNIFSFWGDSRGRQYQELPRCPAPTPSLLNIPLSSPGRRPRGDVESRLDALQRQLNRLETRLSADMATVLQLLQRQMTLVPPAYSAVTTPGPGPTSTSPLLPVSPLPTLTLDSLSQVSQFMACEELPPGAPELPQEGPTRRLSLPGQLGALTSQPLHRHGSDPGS
row,SMILES,"hERG current change (%, negative = inhibition) at 10uM [%]"
1,CCOC(=O)c1c(-c2ccccc2)oc2cc(Br)c(O)cc12,3.65
2,COc1ccc(CCNC(=O)Nc2cc(F)c(F)cc2Cl)cc1OC,11.2
3,COc1cccc(/C=N/NC(=O)N/N=C/c2cccc(OC)c2O)c1O,13.7
4,CCOc1ccc(C(=O)NCCc2ccccc2)cc1,15
5,CCOP(=O)(OCC)C(Nc1ccc(OC)cc1)c1ccco1 (stereo not drawn),4.78
6,C=CCNC(=O)c1cnc2n(c1=O)CCS2,4.75
7,Cc1ccc(C(=O)NNC(=O)CCC(=O)Nc2cc(C)on2)cc1,18.9
8,O=C(COc1coc(CN2CCCc3ccccc32)cc1=O)Nc1cccc([N+](=O)[O-])c1,-1.67
9,Cc1cc(N/N=C/c2ccc3c(c2)OCO3)nc2ccccc12,0.78
10,CCOC(=O)c1c(CN(C)C)n(C)c2c(O)c(N=NC(N)=O)c3ccc(Br)cc3c12.Cl,2.22
11,CNC(=O)N1c2ccccc2CCc2ccccc21,8.99
12,CC(C)OP(=O)(OC(C)C)C(Nc1ccccn1)c1ccc(F)cc1 (stereo not drawn),19.7
13,CCCC(=O)Nc1ccc(N2CCN(C(=O)c3cc4ccccc4o3)CC2)cc1,-13.4
14,CCCCNC(=S)N(C)/N=C/c1ccc(OCC(=O)Nc2ccc(OC)cc2)c(OC)c1,-4.23
15,O=C(COc1ccccc1)NC1CCSC1=O (stereo not drawn),-72.9
16,NS(=O)(=O)c1ccc(CCNC(=O)C2CCN(S(=O)(=O)c3cnc[nH]3)CC2)cc1,-2.97
17,CN(C(=O)c1ccccc1NC(=O)C(F)(F)F)c1ccccc1,12.9
18,CCOC(=O)c1sc2nc(C)n(N)c(=O)c2c1C,23.8
19,CC(Sc1nnc2c(n1)[nH]c1ccccc12)C(=O)NC1CCCCC1 (stereo not drawn),-3.94
20,COc1ccc(S(=O)(=O)N(C)C)cc1NC(=O)c1ccc2c(c1)OCCO2,3.66
21,CCOC(=O)c1c[nH]c2c(C(F)(F)F)cccc2c1=O,6.07
22,Cc1ccc2cc3cc(C(=O)NCCCN4CCCC4=O)oc3nc2c1,2.4
23,O=C1COc2ccc(C(=O)COC(=O)c3ccccn3)cc2N1,-4.24

row,SMILES,"hERG current change (%, negative = inhibition) at 10uM [%]"
1,COC(=O)c1ccccc1C(=O)N1CCOCCOCCOCC1,13.2
2,CCN(CC(=O)NCc1ccc(Cl)cc1)C(=O)/C=C/c1ccccc1,-46
3,Cc1cc(Cl)ccc1Oc1ncnc2onc(C)c12,2.55
4,O=C(O)Cn1cnc2ccccc2c1=O,11.6
5,O=C(Cn1cc2c(n1)CCCCC2)NC1CCN(Cc2ccccc2)CC1,-58.5
6,COc1ccc(/C=C(/NC(=O)c2ccco2)C(=O)Nc2ccc(C(=O)O)cc2)cc1,9.11
7,CC1Cc2ccccc2N1C(=O)CNCCCN(C)C.O=C(O)C(=O)O (stereo not drawn),4.46
8,CCOC(=O)/C(=N/Nc1ccccc1)c1csc(Nc2ccccc2)n1,-1.19
9,Cc1c(O)nc(SC2CC(=O)N(c3ccccc3)C2=O)[nH]c1=O (stereo not drawn),7.22
10,COc1cc(C(=O)N2CCc3ccccc32)ccc1OCc1c(C)noc1C,-29
11,Cc1ccc(NC(=O)c2ccc(S(=O)(=O)N3CCCC3)cc2)nc1,16.9
12,Cc1noc(NS(=O)(=O)c2ccc(NC(=O)c3oc4ccc(Cl)cc4c3C)cc2)c1C,8
13,Cc1nc2nc(COc3ccccc3)[nH]n2c(=O)c1C,8.35
14,Cc1cc(C)c(NC(=O)C(=O)NCc2ccco2)c(C)c1,15.2
15,Cc1cc(CNC(=O)COc2cc(F)ccc2[N+](=O)[O-])c2ccccc2n1,-0.901
16,O=C(c1ccccc1)c1cnc2ccc(Cl)cc2c1N1CCOCC1,-14.5
17,O=C(Nc1ccc(Cl)c(Cl)c1)N(Cc1cccnc1)Cc1ccco1,-73.7
18,CCOC(=O)c1ccc(NC(=O)Cc2coc3cc4c(cc23)CCC4)cc1,5.55
19,COc1ccc(CNC(=O)CN2CCN(c3ccc(F)cc3)CC2)cc1,-39.1
20,COc1ccc(C(=O)NNC(=O)CSc2nc(C(C)C)nc3ccccc23)cc1,-3.52
21,O=C(CCN1CCN(c2ccccc2)CC1)Nc1nccs1,-9.77
22,Cn1nnnc1NCc1ccc(Cl)c(Cl)c1,7.47
23,C=CC[n+]1c(-c2ccc(C)cc2)csc1NNC(=O)Nc1ccccc1.[Br-],-6.68

row,SMILES,"hERG current change (%, negative = inhibition) at 10uM [%]"
1,Cc1cccc(NC(=O)CCCCCN2C(=O)[C@@H]3Cc4ccccc4CN3C2=O)c1,-21.7
2,CCCNC(=O)C1CCC(CNS(=O)(=O)c2ccc3c(c2)CC(C)N3C(C)=O)CC1 (stereo not drawn),17.2
3,COC(=O)c1ccc(C(=O)OC)c(NC(=S)N2CCC(C)CC2)c1,5.56
4,CCn1c(=O)c2cc(C(=O)N3CCN(C)CC3)sc2c2ccccc21,-7.87
5,Clc1ccc(N/N=C/c2cccnc2)cc1,-0.519
6,COc1ccc(C(=O)O)cc1S(=O)(=O)Nc1ccc(C)cc1,23.1
7,Clc1ccc2c(NCc3ccccn3)ncnc2c1,-5.19
8,C1COC(NC(C2CC2)C2CC2)=N1.O=C(O)/C=C/C(=O)O,5.66
9,CCn1nc(C)c(NS(=O)(=O)c2ccc(C)cc2)c1C,-0.126
10,O=C(Cc1ccc(F)cc1)Nc1c(C(=O)N2CCN(c3ncccn3)CC2)oc2ccccc12,-56
11,COC(=O)c1ccc(SC)cn1,14.8
12,COc1ccc(C(CNC(=O)Cc2ccc(-c3ccccc3)cc2)N(C)C)cc1 (stereo not drawn),-29.8
13,CCc1ccccc1NC(=O)CSc1nc(-c2ccccc2)nn1C(=O)c1cccc([N+](=O)[O-])c1,-0.129
14,Cc1ccc(-n2c(=O)c3sccc3n(CC(=O)NC3CCCC3)c2=O)cc1,16
15,COC1=CC(=Cc2c(N)n3nc(CC(=O)N4CCCCC4)sc3nc2=O)C=C(OC)C1=O,9.27
16,C=CCNC(=O)c1ccncc1,6.85
17,CCC(=O)Nc1ccccc1C(=O)NC1CCCCC1,-1.67
18,O=C1NCC(COCC2CC=CCC2)O1 (stereo not drawn),-8.02
19,COc1ccc(-c2csc3ncnc(Nc4ccc(O)cc4)c23)cc1,11.2
20,O=C(Cn1cc(C(F)(F)F)ccc1=O)Nc1cc(S(=O)(=O)N2CCOCC2)ccc1Cl,-16
21,CCOC(=O)C1=C(C)NC(=O)NC1c1ccc(OC)c(CN2CCOCC2)c1 (stereo not drawn),0.39
22,COCCN(CCOC)c1nc(-c2ccccc2)nc2ccccc12,-68.2
23,CN1CCN(Cc2nc(Cc3ccccc3)no2)CC1c1ccccc1 (stereo not drawn),-9.54

row,SMILES,"hERG current change (%, negative = inhibition) at 10uM [%]"
1,COc1ccc(NC(=O)C2CCCN2S(=O)(=O)c2ccc3c(c2)CC(C)N3C(C)=O)cc1OC (stereo not drawn),9.19
2,O=C(C1CCCC1)N1CCN(S(=O)(=O)c2cccc(Cl)c2Cl)CC1,1.24
3,CCOc1ccc(C(c2nnnn2C(C)(C)C)N2CCN(C(=O)c3ccco3)CC2)cc1 (stereo not drawn),-69.3
4,O=C(NCCOc1ccccc1F)c1cc(F)c(F)cc1Cl,-35
5,CC(C)NC(=O)c1ccccc1NC(=O)CCc1ccccc1,-0.576
6,CC(C)CCNC(=O)NC(=O)CSc1ccc(S(=O)(=O)N2CCOCC2)cn1,-1.25
7,COC(=O)CSc1nnc(CNc2ccc(Cl)cc2)n1-c1ccccc1,-33.3
8,CN(C)CCNC(=O)C(=O)Nc1ccc2c(c1)N(S(=O)(=O)c1cccs1)CCC2,-2.98
9,Cc1ccc(NC(=O)O/N=C/c2ccc(Br)cc2)cc1,1.12
10,COc1cc2c(cc1OC)CN(C(=O)CCc1c[nH]c3ccccc13)[C@H](C(=O)O)C2,18.8
11,CCCCCC/C(=N/O)c1ccccn1,-8.5
12,Cn1c(Cc2cccs2)nnc1SCC(=O)Nc1ccc(C(N)=O)cc1,11
13,CC1CN(c2nc3c(c(=O)n(Cc4ccc(Cl)c(Cl)c4)c(=O)n3C)n2C)CC(C)O1 (stereo not drawn),-35.7
14,CC(C)C(OC(=O)c1cccs1)C(=O)NCc1ccc2c(c1)OCO2 (stereo not drawn),23.9
15,O=C(Nc1nccs1)c1ccc(F)c(S(=O)(=O)N2CCOCC2)c1,-18.8
16,Cc1[nH]c2ccccc2c1/C=N/Nc1nc(Nc2ccccc2)nc(N2CCOCC2)n1,-26.3
17,CCOc1c(Nc2ccccc2O)c(=O)c1=O,20.7
18,COc1ccc(NS(=O)(=O)c2ccc3oc4ccccc4c3c2)cn1,17.4
19,Brc1ccc(N=C/C=C/C=C/Nc2ccc(Br)cc2)cc1.Cl,-7.95
20,O=C(NCNC(=O)NC1C(=O)NC(=O)N1CO)NC1C(=O)NC(=O)N1CO (stereo not drawn),-1.09
21,CCN(CC)C(=O)C1CCCN(c2ccc([N+](=O)[O-])cc2/C=N/NC(=O)c2ccccc2)C1 (stereo not drawn),-45.4
